The list shows a part of the results. Antibody binding of pooled human sera (four to six donors per pool; dilution not stated) to peptides of the Trypanosoma cruzi antigen TSSA on microarrays. Quantile-normalised fluorescence in arbitrary units, mean of duplicate arrays; higher = more binding. No active / inactive call. The uninfected pools are read here as the healthy donors of the same country. The strongest signals lie near the top of the scale (about 60,000).
How the values were obtained:
Test in all cases: antibody binding signal (normalised fluorescence) (arbitrary fluorescence units); higher = stronger serum antibody binding to peptide
[1] = system: pooled sera of chronic Chagas disease patients, Argentina
Description: (§1)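 Microarray of overlapping 15-residue peptides of the four Trypanosoma cruzi TSSA reference variants and 8- to 13-residue peptides of TSSAII 24-62, probed with one serum pool per country.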

[2] = system: pooled sera of chronic Chagas disease patients, Bolivia
Description: as §1

[3] = system: pooled sera of chronic Chagas disease patients, Brazil
Description: as §1

[4] = system: pooled sera of chronic Chagas disease patients, Colombia
Description: as §1

[5] = system: pooled sera of chronic Chagas disease patients, Mexico
Description: as §1

[6] = system: pooled sera of chronic Chagas disease patients, USA
Description: as §1

[7] = system: pooled sera of uninfected people, Argentina
Description: as §1

[8] = system: pooled sera of uninfected people, Bolivia
Description: as §1

[9] = system: pooled sera of uninfected people, Colombia
Description: as §1

[10] = system: pooled sera of uninfected people, Mexico
Description: as §1

[11] = system: pooled sera of uninfected people, USA
Description: as §1

[12] = system: pooled sera of uninfected people, Brazil
Description: as §1

Row | Sequence | antibody binding signal [1] | antibody binding signal [2] | antibody binding signal [3] | antibody binding signal [4] | antibody binding signal [5] | antibody binding signal [6] | antibody binding signal [7] | antibody binding signal [8] | antibody binding signal [9] | antibody binding signal [10] | antibody binding signal [11] | antibody binding signal [12]
1 | ENKPATGEA | 34700 | 28800 | 31800 | 193 | 633 | 18900 | 229 | 712 | 102 | 428 | 360 | –
2 | KPATGEAPSQP | 47700 | 37900 | 48100 | 129 | 331 | 40900 | 869 | 851 | 116 | 196 | 146 | –
3 | SQPGASSGE | 326 | 126 | 8710 | 92.3 | 141 | 116 | 109 | 96.9 | 85.1 | 321 | 145 | –
4 | KPATGEAPSQPG | 47700 | 43700 | 47600 | 192 | 345 | 37600 | 820 | 845 | 144 | 219 | 171 | –
5 | EAEASSNKNDGSLSS | 260 | 611 | 421 | 571 | 1300 | 656 | 158 | 164 | 133 | 1840 | 830 | –
6 | STPPSGTENKP | 50300 | 47200 | 49900 | 282 | 9010 | 41900 | 8780 | 837 | 789 | 620 | 749 | 417
7 | SQPGASSGEA | 249 | 144 | 7610 | 136 | 174 | 92.7 | 136 | 97.7 | 112 | 196 | 137 | 157
8 | KPATGEAPSQPGASS | 45000 | 44700 | 50700 | 167 | 299 | 33800 | 818 | 809 | 128 | 237 | 206 | –
9 | GTENKPAT | 38300 | 12600 | 25200 | 2220 | 3790 | 9430 | 643 | 1450 | 199 | 146 | 219 | 271
10 | SGTEKKAAAGEAPSP | 692 | 599 | 4720 | 838 | 811 | 12400 | 106 | 766 | 130 | 122 | 188 | 3040
11 | STSSTPPSGTEN | 40800 | 43400 | 28000 | 390 | 176 | 419 | 362 | 166 | 95.8 | 160 | 177 | –
12 | TENKPATGEAPS | 47600 | 52900 | 51400 | 277 | 401 | 39200 | 987 | 795 | 135 | 239 | 204 | –
13 | GTENKPATG | 42200 | 14700 | 27200 | 3560 | 4970 | 10600 | 719 | 2420 | 215 | 301 | 230 | –
14 | PATGEAPSQPGASSG | 42600 | 50800 | 48200 | 187 | 258 | 24500 | 483 | 148 | 160 | 196 | 155 | –
15 | NGGSTSSTPP | 233 | 229 | 301 | 187 | 213 | 131 | 258 | 227 | 116 | 133 | 90.9 | –
16 | SQPGASSGEAEAS | 142 | 126 | 8370 | 97.4 | 140 | 115 | 212 | 131 | 112 | 80.7 | 205 | –
17 | SSTPPSGTENK | 54200 | 54400 | 54100 | 403 | 8450 | 31600 | 2980 | 630 | 891 | 420 | 506 | –
18 | SGTENKPATG | 39200 | 26000 | 41000 | 390 | 876 | 8610 | 2180 | 2160 | 196 | 503 | 378 | 438
19 | GSTISTPPSGTEKKA | 38800 | 3490 | 33500 | 334 | 13900 | 6890 | 1040 | 380 | 175 | 106 | 154 | –
20 | EAPSPSGASSGEAEA | 124 | 141 | 4480 | 125 | 795 | 123 | 277 | 129 | 114 | 75.5 | 140 | 98.4
21 | PPSGTENKPAT | 50000 | 45800 | 50200 | 2240 | 5650 | 25400 | 5710 | 1960 | 842 | 453 | 1200 | –
22 | PATGEAPSQPG | 41000 | 48200 | 45400 | 239 | 184 | 26900 | 668 | 131 | 170 | 143 | 129 | –
23 | PATGEAPSQPGA | 42600 | 47200 | 46900 | 173 | 186 | 29400 | 758 | 154 | 228 | 232 | 185 | 326
24 | GSTSSTPPGTDKKTA | 1280 | 474 | 15100 | 6970 | 2620 | 20500 | 185 | 95.1 | 212 | 1040 | 293 | 160
25 | SSTPPSGTE | 12400 | 141 | 9360 | 94.1 | 139 | 67.2 | 95 | 71.8 | 80.2 | 111 | 78.1 | –

Row | Sequence | antibody binding signal [1] | antibody binding signal [2] | antibody binding signal [3] | antibody binding signal [4] | antibody binding signal [5] | antibody binding signal [6] | antibody binding signal [7] | antibody binding signal [8] | antibody binding signal [9] | antibody binding signal [10] | antibody binding signal [11] | antibody binding signal [12]
26 | PSGTENKPATGE | 42900 | 41200 | 45500 | 893 | 2940 | 24100 | 2120 | 1480 | 359 | 371 | 629 | –
27 | TANGGSTSSTPPSGT | 225 | 297 | 926 | 205 | 434 | 238 | 198 | 311 | 136 | 176 | 129 | 293
28 | ENKPATGEAPSQ | 45900 | 48400 | 48700 | 291 | 372 | 46500 | 1060 | 840 | 136 | 212 | 206 | 287
29 | TANGGSTSSTPPS | 143 | 231 | 362 | 199 | 350 | 152 | 144 | 177 | 107 | 134 | 217 | 251
30 | SSTPPSGTENKPATG | 49100 | 54100 | 53700 | 1690 | 5810 | 45800 | 9430 | 2250 | 866 | 661 | 981 | –
31 | PPSGTENKPATG | 51800 | 43100 | 53100 | 2270 | 6390 | 27500 | 6430 | 2850 | 914 | 771 | 1190 | 1100
32 | APSQPGASSG | 5820 | 1240 | 541 | 817 | 17400 | 574 | 210 | 344 | 231 | 5650 | 306 | –
33 | ATGEAPSQP | 19000 | 31900 | 37800 | 176 | 367 | 14500 | 188 | 158 | 70.9 | 125 | 75.2 | 195
34 | KTAAGGTPSPSGASS | 1310 | 166 | 240 | 8490 | 2810 | 1270 | 190 | 157 | 129 | 443 | 243 | 649
35 | TENKPATGEAPSQPG | 48300 | 43800 | 45400 | 367 | 630 | 41100 | 953 | 776 | 138 | 191 | 194 | –
36 | PSGTENKPATGEAPS | 45300 | 51400 | 52400 | 1030 | 2080 | 48100 | 2380 | 2030 | 402 | 549 | 561 | –
37 | GGSTSSTPPSG | 368 | 180 | 329 | 250 | 212 | 114 | 186 | 240 | 102 | 146 | 127 | –
38 | GTPSPSGASSGEAEA | 163 | 132 | 4260 | 197 | 515 | 191 | 163 | 134 | 111 | 83.4 | 152 | –
39 | ANGGSTISTPPSGTE | 8580 | 1070 | 7380 | 1500 | 690 | 1410 | 493 | 204 | 178 | 195 | 92.8 | –
40 | GTDKKTAAGGTPSPS | 469 | 209 | 181 | 10200 | 485 | 1870 | 94.3 | 172 | 298 | 171 | 125 | –
41 | TTANGGSTSSTPPSG | 235 | 693 | 543 | 182 | 249 | 171 | 196 | 197 | 302 | 195 | 111 | –
42 | TANGGSTS | 214 | 175 | 255 | 117 | 280 | 717 | 145 | 146 | 130 | 194 | 585 | –
43 | DKKTAAGGTPSPSGA | 892 | 240 | 360 | 9850 | 504 | 1770 | 152 | 101 | 231 | 193 | 215 | –
44 | KPATGEAP | 42600 | 42200 | 47400 | 163 | 240 | 34800 | 916 | 877 | 358 | 206 | 208 | –
45 | TAAGEAPSPSGASSG | 401 | 272 | 920 | 105 | 813 | 214 | 147 | 102 | 107 | 87.5 | 432 | –
46 | QPGASSGEAE | 419 | 113 | 9480 | 117 | 109 | 138 | 192 | 93.5 | 194 | 94.3 | 82.7 | –
47 | ATGEAPSQPGA | 20700 | 34100 | 37700 | 257 | 255 | 15000 | 271 | 195 | 170 | 238 | 146 | –
48 | SSGEAEASSNKNDGS | 269 | 1510 | 2870 | 507 | 1260 | 1150 | 155 | 278 | 119 | 1290 | 679 | –
49 | STISTPPSGTEKKAA | 29800 | 13300 | 36800 | 762 | 11700 | 6440 | 5370 | 495 | 312 | 154 | 976 | –

— the supplement of paper PMC10441789
